PubChem BioAssay (NCI)
“And” between values parts separate entries of the source, which are not always exact repeats. Equal entries are not always repeated.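 Cultured in 96-well plates, cells were exposed to test compound for 48 hours across five concentrations. Abbreviation: GI50, concentration required for 50% inhibition of growth. The concentration for full growth arrest is given as TGI.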

test system: NCI-H322M lung; assay: DTP human tumour cell line panel, 48 h

Compound | TGI | GI50
COc1ccc(NC(=O)C(=O)C(CC2C(=O)NC(=S)NC2=O)C(=O)c2ccc3ccccc3c2)c([N+](=O)[O-])c1 (configuration not stated) | > 100 µM | 
O=C(Sc1c(-c2ccccc2)c(=O)n(-c2ccccc2)c(=S)n1-c1ccccc1)c1ccc(Cl)cc1 | > 100 µM | 
c1cncc(C2c3[nH]c4ccccc4c3CCN2CCCN2CCCCC2)c1 (configuration not stated) | > 100 µM | 
C/C(=N\O)c1sc(-n2nc(-c3ccccc3)cc2-c2ccccc2)nc1C | > 31.6 µM | 
c1ccc(N/N=C2\CC(c3ccccc3)Oc3ccccc32)cc1 (configuration not stated) | > 100 µM | 
COc1ccccc1C1C2=C(COC2=O)OC(C)(C)Oc2cc3c(cc21)OCO3 (configuration not stated) | > 100 µM | 
C=C(Cl)C(C)(Cl)CCC(Cl)C(C)(C)Cl (configuration not stated) | > 100 µM | 
CSc1ccc(-c2cn3ccsc3n2)c(O)c1 | > 100 µM | 
O=C(O)C(Cc1ccc(O)cn1)NC(=O)C(F)(F)F (configuration not stated) | > 100 µM | 
CC12CN(CC[N+](C)(C)C)CC1(C)C1CCC2O1 (configuration not stated) | > 100 µM | 
CCOC(=O)[C@H](CSSc1ncnc2cc[nH]c12)NC(=O)[C@@H](C)c1ccc2cc(OC)ccc2c1 | > 100 µM | 1.81 µM
CN1CCN(C(=O)c2ccc(NC(=O)Nc3ccc(N(C)c4ccnc(Nc5ccc(CS(C)(=O)=O)cc5)n4)cc3)cc2)CC1 | > 25 µM | > 25 µM
O=C(CCl)N1CCCCC1C1(c2cc3ccccc3[nH]2)OCCO1 (configuration not stated) | 14.7 µM | 
Cc1nc(Nc2nnc(-c3cc([N+](=O)[O-])cc([N+](=O)[O-])c3C)o2)sc1C(=O)CC(=O)Cc1nc2ccc(Cl)cc2[nH]c1=O | > 100 µM | 
Cc1cc(N(CCOS(C)(=O)=O)CCOS(C)(=O)=O)ccc1C=Nc1ccc(-c2csc(-c3ccccc3)n2)c(Cl)c1 | 41.9 µM | 
O=c1ncc(-c2ccc(C(F)(F)F)cc2)c(NC2CCCCCC2)[nH]1 | 79.1 µM | 28.2 µM
O=C1c2ccccc2C(=O)N1/N=C\c1ccc(Br)cc1 | > 100 µM | > 100 µM
CCCCCCN(CCCCCC)C(=N)c1ccnc2ccccc12 | 21.5 µM | 7.75 µM
O=C(OC(C(=O)O)C(OC(=O)c1ccccc1)C(=O)O)c1ccccc1 (configuration not stated) (tested in a mixture with another compound) | > 100 µM | 
COc1ccc2[nH]c3c4c(c5cc(C(C)(C)C)ccc5c3c2c1)C(=O)N(c1ccccc1)C4=O | > 100 µM | 
COc1ccc(-c2cc(-c3ccc(Nc4nc(Nc5ccc(Cl)cc5)nc(Nc5ccc(Cl)cc5)n4)cc3)no2)cc1 | > 100 µM | 23 µM
O=C(NNC(=S)Nc1ccccc1)C12CC3CC(CC(C3)C1)C2 | > 100 µM | 
CC(C)(Cl)CCC1=C(Cl)C(=O)c2ccccc2C1=O | 28.6 µM | 12.6 µM
Nc1nc(N)c2nc(CNc3ccc(C(=O)CC(CCC(=O)O)C(=O)O)cc3)cnc2n1 (configuration not stated) | > 100 µM | 4.21 µM

Compound | TGI | GI50
COC(=O)c1cc(C)ccc1/C=C1\Cc2cc(C)c(C)cc2C1=O | > 100 µM | 
COc1cc2c(c(OC)c1OC)-c1ccc(OC)c(=O)cc1[C@@H](NC(=O)CCl)CC2 | 19.5 µM | < 0.0189 µM
COC1=CC(=O)c2ccc(C(C)C)cc2C1(C)C1=NC(C)(C)CO1 (configuration not stated) | > 100 µM | 
CS(=O)(=O)CCNCc1ccc(-c2ccc3ncnc(Nc4ccc(OCc5ccccc5)c(C(F)(F)F)c4)c3c2)o1 | > 25 µM | 8.67 µM
O=c1c2cccnc2[nH]c2ccc3scnc3c12 | > 10 µM | 
COC(=O)c1cc(NC2OCC(OC(C)=O)C(OC(C)=O)C2OC(C)=O)nc(SC)c1C(=O)OC (configuration not stated) | > 100 µM | 
CC(C#N)c1cn(S(=O)(=O)c2ccccc2)c2ccccc12 (configuration not stated) | > 100 µM | 
COC(=O)c1ccccc1C1CN=NC12Cc1c(C)cc(C)cc1C2=O (configuration not stated) | > 100 µM | 
CCc1cc(-c2nsc(=O)o2)c(S(=O)(=O)CC)s1 | > 100 µM | 
CCOC(=O)c1ccc2c(c1)nc1n2C(c2c(F)cccc2F)SC1 (configuration not stated) | > 100 µM | 
CC1CC(N)=Nc2ccccc2N1Cc1ccccc1 (configuration not stated) | > 100 µM | 
CCN1C(C)=NC2C(=O)c3ccccc3C(=O)C21 (configuration not stated) | > 100 µM | 
N=c1c2c(ncn1N)Oc1c(c(-c3ccccc3)nn1-c1ccccc1)C2c1ccc(Cl)cc1 (configuration not stated) | 3.31 µM | 
COc1ccc(C(=O)/C=C/c2cc3ccccc3[nH]c2=O)cc1 | > 86.3 µM | 32.3 µM
N#Cc1c(C#N)c(-c2cccc([N+](=O)[O-])c2)n(-c2ccccc2)c1N | > 100 µM | 
CCc1ccc(C2=C/C(=C/c3ccc(Cl)cc3)C(=O)N2CCc2ccc(S(N)(=O)=O)cc2)cc1 | 9.63 µM | 2.83 µM
COc1ccc(C2Oc3c(cccc3OC)C=C2[N+](=O)[O-])cc1OC (configuration not stated) | > 100 µM | 
COc1ccc(C(=S)c2cc(OC)c(OC)c(OC)c2)cc1OC(=O)CCl | > 100 µM | 0.0566 µM
O=C(O)C1C2C=CC(O2)C1C(=O)Nc1ccccc1 (configuration not stated) | > 100 µM | 
CC1=CC(=O)C(C)(C2=NC(C)(C)CO2)c2ccccc21 (configuration not stated) | > 100 µM | 
Cc1cc(NC(=O)c2ccc(NS(=O)(=O)CCO)cc2N2CCC3(CC2)CC3)nc(N2CCC(F)(F)CC2)n1 | 26.8 µM | 13.6 µM
O=c1[nH]cnc2c(C3OC(CO)C(O)C3O)[nH]nc12 (configuration not stated) | > 100 µM | 
COc1ccccc1/C=C/C(=O)c1sc(-c2cccnc2)nc1C | > 100 µM | 
Nc1ccccc1NC(=O)c1ccc(CSc2nc(N3CCOCC3)c3cccn3n2)cc1 | > 100 µM | 1.81 µM

Compound | TGI | GI50
[N-]=[N+]=NC1(N=[N+]=[N-])C(=O)NN=C(c2ccccc2)C1=O (configuration not stated) | > 100 µM | 
CC(C)(C)CN1[C@@H]2CCCC[C@H]2N(CC(C)(C)C)P1(=O)Cc1ccccc1 | 27.8 µM | 
CCOC(=O)Cc1ccc(Nc2nc3cc(C(F)(F)F)ccc3nc2C(=O)OCC)cc1 | > 100 µM | 
O=C(O)C(Cc1cccs1)NC(=O)C(F)(F)F (configuration not stated) | > 100 µM | 
CC(=O)CC(=O)N(CCN(C(=O)CC(C)=O)c1ccccc1)c1ccccc1 | > 100 µM | 
CC1OC(OC2C(OC(=O)[C@]34CCC(C)(C)C[C@H]3C3=CC[C@@H]5[C@@]6(C)CC[C@H](OC7OC(C(=O)O)C(O)C(O)C7O)C(C)(C)[C@@H]6CC[C@@]5(C)[C@]3(C)CC4)OCC(O)C2O)C(O)C(O)C1OC1OCC(O)C(O)C1O (some centres not stated) | > 100 µM and 90.2 µM | 
COC(=O)[C@H](CCSC)NC(=O)c1ccc(CNC(=O)/C=C/c2cccc(Oc3ccccc3)c2)cc1 | > 100 µM | 
C/C(=C\c1ccn(-c2ccc(N)c(C(F)(F)F)c2)n1)[C@@H]1C[C@@H]2O[C@]2(C)CCC[C@H](C)[C@H](O)[C@@H](C)C(=O)C(C)(C)[C@@H](O)CC(=O)O1 | > 32.5 µM | 0.0153 µM
O=C1C2CC3C(CC2C(=O)[N]1[Sn]([c]1ccccc1)([c]1ccccc1)[c]1ccccc1)C1(Cl)C(Cl)=C(Cl)C3(Cl)C1(Cl)Cl (configuration not stated) | 0.278 µM | 0.13 µM
O=C(O)C(=O)Cc1ccc2c(c1)OCO2 | > 100 µM | 
CC(=O)[CH-]C(=O)c1ccccc1.CC(=O)[CH-]C(=O)c1ccccc1.O=C([O-])C[O-].O=C([O-])C[O-].[Ti+4] | > 100 µM | > 100 µM
CC1=C(C)SC(=C2Sc3c(n(C)c(=O)[nH]c3=O)S2)S1 | > 100 µM | 
C[C@H](c1ccc(Cl)cc1N)N1C(=O)c2cc(I)ccc2N(CCCN2CCN(C)CC2)C(=O)[C@@H]1c1ccc(Cl)cc1 | 2.94 µM | 1.54 µM
CC(=O)C1(c2ccccc2)CCN(Cn2sc3nc(C)cc(C)c3c2=O)CC1 | > 100 µM | 
CCOC(=O)/C(C#N)=C(/NS(=O)(=O)c1cc(C)c(Cl)cc1[S-])[n+]1ccc(N(C)C)cc1 | > 100 µM | 
CC(=O)OCC1OC(n2c(C)c(N=Nc3ccc(C)cc3)c(C)c(C#N)c2=S)C(OC(C)=O)C(OC(C)=O)C1OC(C)=O (configuration not stated) | > 100 µM | 
O=C1C(=O)c2cc([N+](=O)[O-])ccc2-c2ccccc21 | 10.7 µM | 3.33 µM
CC(=O)[O-].CC(=O)[O-].[Mn+2].c1ccc(/C(=N\Nc2ccccn2)c2ccccn2)cc1 | 6.45 µM | 
COC(=O)c1cc(Br)c(C(=O)C(Cl)(Cl)Cl)[nH]1 | > 100 µM | 
CC1(C)SC2C(C(=O)O)N=C(Cc3ccccc3)N2C1C(=O)O (configuration not stated) | 56.8 µM | 
C/C(CC(=O)CCCC(=O)Nc1ccc(Cl)cc1Cl)=N/NC(=O)CC#N | > 100 µM | 
N=c1nc(N)c2cc3c(N)nc(=N)c3cc12 | > 96 µM | 
Cc1ccc2c(c1)C(=O)/C(=C1/CCc3ccc(C)cc31)C2 | > 100 µM | 
CCCC(OCC)(OCC)OCC | > 100 µM | 

Compound | TGI | GI50
CN(CCc1ccc(Br)cc1)CCN1CCCCC1 | > 100 µM | 
COc1ccc2cc(C(=O)c3ccccc3C(=O)O)ccc2c1 | > 100 µM | 
Cc1cc(Cl)nc(NC(=O)CSc2ccc(Cl)cc2)n1 | > 100 µM | 
COC(=O)c1cc(C#N)[nH]c1-c1ccsc1 | > 100 µM | 
NC1=NC(=O)N2CC12 (configuration not stated) | > 100 µM and 1170 µM | 538 µM
C#C[C@@]1(O)[C@@H](CO)O[C@@H](n2cc(Cl)c3c(N)ncnc32)[C@@H]1O | 3.13 µM | 0.262 µM
CC1(C)CCC(=O)c2c(O)ccc(O)c21 | > 100 µM | 
O=C1O/C(=C\c2ccc(O)c(Br)c2)C(c2ccc(O)cc2)=C1Cl | > 100 µM | 
C=CCNC1=C2C[C@@H](C)C[C@@H](OC)[C@H](OC(=O)CN(C)C)[C@H](C)/C=C(\C)[C@@H](OC(N)=O)[C@H](OC)/C=C\C=C(/C)C(=O)NC(=CC1=O)C2=O | 21.1 µM | 
CC(=O)c1ccc(-c2oc(-c3ccccc3)cc2-c2ccc3c(c2)OCO3)s1 | > 100 µM | 
C[C@]12CCC[C@H](OC=O)C1(O)C[C@H](C(=O)O)CC2 (some centres not stated) | > 100 µM | 
N=c1ccn2c(n1)OC1C(OP(=O)(O)O)C(CO)OC12 (configuration not stated) | > 100 µM | 
CON(C)C(=O)C(Cc1ccccc1)NC(=O)OC(C)(C)C (configuration not stated) | > 100 µM | 
Cc1cc(C)c2c(=O)cc(-c3ccc(Cl)cc3)[nH]c2n1 | > 100 µM | 
NCC(=O)C(O)C(O)C(O)CO (configuration not stated) | > 100 µM | 
CCC1(O)CC(OC2CC(N(C)C)C(OC3CC(O)C(OC4OC(C)C(=O)C=C4N)C(C)O3)C(C)O2)c2c(O)c3c(c(O)c2C1C(=O)OC)C(=O)c1cccc(O)c1C3=O (configuration not stated) | 0.592 µM | 
CNC(=O)c1ccc(Nc2ncc(C(F)(F)F)c(NCc3nccnc3N(C)S(C)(=O)=O)n2)cc1 | > 10 µM and 10.3 µM and 12.1 µM | 2.3 µM and 2.16 µM and 2.47 µM
CCc1ccccc1NC(=O)/C(CC(=O)c1c(C)n([O-])c2ccccc2[n+]1=O)=N\NS(=O)(=O)c1ccc(C)cc1 | > 100 µM | 
CC[O-].CC[O-].[O-]c1ccccc1C=Nc1ccccc1.[O-]c1ccccc1C=Nc1ccccc1.[Ti+4] | > 100 µM | 81 µM
COc1ccc(-c2coc3ncnc(N)c23)cc1 | > 25 µM | > 25 µM
C=C(C)C(=O)NC(N)=NC#N | 320 µM | 
COC(=O)c1cccc(NC(=O)Nc2ccc3oc(=O)c4ccccc4c3c2)c1 | > 100 µM | > 100 µM
CCN(Cc1ccc(F)cc1)c1ccc(CO)c(Cl)c1 | > 48 µM | 13.4 µM
